From ChEMBL document CHEMBL4888484, “Replenishing the malaria drug discovery pipeline: Screening and hit evaluation of the MMV Hit Generation Library 1 (HGL1) against asexual blood stage Plasmodium falciparum ,using a nano luciferase reporter read-out” (2022)
Hit rate of the full screen: of about 150,000 compounds, about 540 (0.36%) showed an effect of 50% or more. Some of the results follow.

test system: Plasmodium falciparum; experiment: Primary screen in NF54 nanoGlo assay, in single point, at 2uM, 72h; a lower Z score goes with more inhibition; type: functional, Erythrocyte; conditions: timepoint 72 hour

Row | SMILES | % Inhibition | Z score
1 | CCCCN(CC(N)=O)CC(=O)NCc1ccccc1 | -2% | 0.32
2 | O=C(CC(F)(F)F)Nc1nc2c(s1)C(=O)NCCC2 | -10% | 1.95
3 | COc1c[nH]c(COCCC2CCC2)cc1=O | -3% | 0.45
4 | C[C@@H](c1ccncc1)N(C)C(=O)c1cccc2c1CCC2=O | -15% | 2.12
5 | CC[C@@H](CO)NC(=O)COC1CCC(NC(=O)OC(C)(C)C)CC1 (stereo partly drawn) | -1% | 0.15
6 | O=C1C[C@H](c2nc(Cc3nc4ccccc4s3)no2)CN1 | -9% | 1.82
7 | CCOc1cccc([C@H](C)NCc2c(C)nnn2CC)c1 | 13% | -1.62
8 | CC1CCN(c2nnc(C(=O)NC3CCCC3)c3ccccc23)CC1 | -7% | 0.86
9 | O=C(NCc1cccc(Cl)c1)c1ccc2c(c1)CCC(=O)N2Cc1ccccc1 | -3% | 0.41
10 | CN(CC(=O)NCC1CCCCC1)C[C@H]1CC(=O)N(C)C1 | -16% | 2.25
11 | CCCCNC(=O)CNc1c(C)cccc1C(N)=O | -7% | 1.26
12 | Cc1nnc([C@@H](Nc2ncnc3sccc23)C(C)C)[nH]1 | 8% | -1.08
13 | Cc1nn(-c2ccccc2)c2c1nc(CCC(=O)NCc1ccc(Cl)cc1)c(=O)n2C | -1% | 0.17
14 | Cc1ccc(-c2nccn3cc(C(=O)NCCCN(C)C)nc23)cc1 | -6% | 0.85
15 | CNC(=O)CC1CCN(Cc2cn(C)c3cc(OC)ccc23)CC1 | -2% | 0.34
16 | CN(Cc1ccccc1)[C@@H]1[C@H](O)[C@H](CO)O[C@@H]1CNS(=O)(=O)c1ccc(Cl)cc1 | 16% | -1.87
17 | Cc1cc(-c2nn(-c3ccccc3F)cc2CN(C)Cc2ccn[nH]2)c(C)s1 | -8% | 1.15
18 | Cc1cccc(NC(=O)C(=O)N2CCCN(C)CC2)c1Cl | -2% | 0.48
19 | CC1Cc2cc(S(=O)(=O)N3CCOCC3c3nc[nH]n3)ccc2O1 (stereo not drawn) | -3% | 0.42
20 | Cc1csc(-c2cc(S(=O)(=O)N3CCC(C)CC3)cn2CC(=O)N2CCCCC2)n1 | -12% | 1.4
21 | CCNC(=O)[C@H]1CCN(Cc2cc(C)c(OC(C)=O)c(C)c2)C1 | -12% | 2.43
22 | O=C(c1nc2ccccc2s1)N1CC(n2cc(C3CC3)nn2)C1 | -6% | 0.89
23 | Cc1ccc(S(=O)(=O)NCc2ccc(Cn3cccn3)cc2)cc1 | -4% | 0.38
24 | COC1(c2nccn2C)CCN(c2ccc(C(F)(F)F)cn2)CC1 | -15% | 1.67
25 | O=C(NC1CCCCCC1)c1ccn2c(-c3ccccc3Cl)nnc2c1 | -15% | 1.72
26 | Cn1cc(S(=O)(=O)N2CC(=O)Nc3cc(C(F)(F)F)ccc32)cc1C(N)=O | -8% | 1.12
27 | CCCc1ccccc1C(=O)N[C@H]1CCO[C@H](c2ccccn2)C1 | -9% | 1.75

Row | SMILES | % Inhibition | Z score
28 | Cc1ccc(NC[C@H]2CCN(CC(=O)NCc3ccco3)C2)nc1 | -12% | 1.01
29 | C[C@H](O)CN1CCCC(C(F)(F)F)C1 (stereo partly drawn) | -1% | 0.1
30 | COCC(=O)N1CC[C@@H](c2ccccc2)S(=O)(=O)CC1 | -18% | 3.09
31 | CCCNC(=O)N1CCn2nc(CCC(=O)N3CCC(O)CC3)cc2C1 | -12% | 2.22
32 | O=S(=O)(CCC(F)(F)F)N1CC(N2CCCC2)C1 | 8% | -0.9
33 | Cc1cccc(-c2noc(CN3CCC4(CC3)C[C@@H]4c3nc(-c4cccnc4)no3)n2)c1 | -2% | 0.36
34 | Cc1cccc(C)c1NC(=O)CN1CCN(Cc2ccc(Cl)cc2)S1(=O)=O | -19% | 1.65
35 | O=C(Nc1ccc2c(c1)OCO2)C1CC1C(=O)Nc1ccc(F)cc1F (stereo not drawn) | 3% | -0.42
36 | Cc1cc(C(=O)N(C)[C@@H](C)C2CC2)on1 | -10% | 1.08
37 | CN(C)c1ncnc2c1ccc(=O)n2C | -9% | 1.57
38 | CNC(=O)C1(N2CCC[C@H]2C(=O)N2CCCCCC2)COC1 | 13% | -1.47
39 | Cc1ccncc1C(=O)N1CCC2(CC1)C[C@@H]2NS(C)(=O)=O | -15% | 1.87
40 | CCCn1cc(S(=O)(=O)N[C@@H](CC)c2nc(C)c[nH]2)cn1 | -9% | 1.52
41 | Cc1ccc(-c2c(N3CCCC3)cn[nH]c2=O)cc1 | 2% | -0.15
42 | CC(=O)Nc1ccc(CNC(=O)[C@H]2CC[C@H](c3ccccc3)C2)cc1 | -11% | 1.39
43 | COc1ccc(OCc2nc(-c3ccc4c(c3)nnn4C3CCCC3)no2)cc1 | -20% | 2.54
44 | CC[C@H](C)N(CCC(=O)Nc1nnc(-c2cccc(Cl)c2)s1)C(=O)COc1ccc(Cl)cc1 | -12% | 1.13
45 | O=C(NC[C@@H](c1ccco1)N1CCCC1)c1cnnn1-c1ccccc1 | 0% | -0.01
46 | CCc1ccc(C(=O)N2CCC(Oc3cccc(C(F)(F)F)c3)CC2)[nH]1 | -12% | 2.12
47 | CS(=O)(=O)N1C2CCC1CC(NC(=O)NC1CCCC1)C2 (stereo not drawn) | -23% | 2.97
48 | COc1ccc(C(=O)N2CCCN(c3nc(C4CC4)nc4c3cnn4-c3ccccc3)CC2)cc1 | -12% | 1.24
49 | CC(C)[C@H]1CN(c2ccncc2F)C[C@@H]1NC(=O)CCS(C)(=O)=O | -8% | 1.18
50 | CCCc1nc(CN(CC)C(=O)NCc2ccccc2F)no1 | -8% | 1.15
51 | O=S(=O)(CC1CCCCO1)N1CCC(N2CCCC2)C1 (stereo not drawn) | 5% | -0.97
52 | O=C(C1CCCC2CCCCC21)N1CCOC(C(F)F)C1 (stereo not drawn) | -14% | 1.5
53 | N#Cc1ccc(-c2nc(C(=O)NC3CCCCCC3)no2)cc1 | -16% | 1.45
54 | O=C(c1cc(-c2ccccc2F)nc2cc(-c3ccccc3)nn12)N1CCN(c2cccc(C(F)(F)F)c2)CC1 | -3% | 0.38
